Assay in all cases: Primary Screen for Target Class Profiling of Small Molecule Inhibitors of Methyltransferases
Assay [1] deals with Glycine N-methyltransferase (Homo sapiens) (UniProt Q14749). The settings on record: purified enzyme, MTase-Glo SAH luminescence; measured here: GNMT inhibition; at 40 µM; stronger effect = lower value. Summed up: (§1)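 Each enzyme was assayed with SAM and its substrate. SAH formation detected by MTase-Glo luminescence; single-point 40 uM screen[…].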
Assay [2] deals with Guanidinoacetate N-methyltransferase (Homo sapiens) (UniProt Q14353). Conditions: purified enzyme, MTase-Glo SAH luminescence; measured here: GAMT inhibition; at 40 µM; stronger effect = lower value. In short, it runs like this:
as §1

Assay [3] has as its target Histamine N-methyltransferase (Homo sapiens) (UniProt P50135). The settings on record: purified enzyme, MTase-Glo SAH luminescence; measured here: HNMT inhibition; at 40 µM; stronger effect = lower value. Summed up:
as §1

For assay [4], the target named is Nicotinamide N-methyltransferase (Homo sapiens) (UniProt P40261). The settings on record: purified enzyme, MTase-Glo SAH luminescence; measured here: NNMT inhibition; at 40 µM; stronger effect = lower value. In short, it runs like this:
as §1

For assay [5], the target named is Phenylethanolamine N-methyltransferase (Homo sapiens) (UniProt P11086). The settings on record: purified enzyme, MTase-Glo SAH luminescence; measured here: PNMT inhibition; at 40 µM; stronger effect = lower value. Summed up: as §1

Some of the results follow. Shown are side measurements of this screen, not its main read-out; they come without a call.
% is set by controls: 0 for no effect and ±100 for the full control effect.

In the case of `O=C(NCc1ccc(F)cc1)c1ccc2nnc(CC3CC3)n2c1`, the activity change, negative = inhibition is -6.56% in assay [1]; -5.74% in assay [2]; -3.12% in assay [3]; -11.3% in assay [4]; -11.4% in assay [5].

With `Cc1noc(C2CC3(CCN(C(=O)Nc4ccccc4)CC3)CN2C)n1` (stereo not given), the activity change, negative = inhibition in assay [1] was -6.75%; in assay [2], -6.87%; in assay [3], -2.16%; in assay [4] it was -8.7%; in assay [5], -6.85%.

Consider `O=C(C1CCOCC1)N1CCC2(CC1)CC(N1CCCC1)CCO2` (stereo not given), for which the activity change, negative = inhibition is -5.03% in assay [1]; -0.239% in assay [2]; -7.09% in assay [3]; -5% in assay [4]; -2.96% in assay [5].

In the case of `O=C(NCC1(c2nc(-c3ccccc3)cs2)CCOCC1)c1cccc(-c2noc(C(F)(F)F)n2)c1`, the activity change, negative = inhibition in assay [1] was 3.49%; in assay [2] it was -6.36%; in assay [3], -2.03%; in assay [4], -23.4%; in assay [5] it was -12.4%.

Regarding `CN1CCN(C2=Nc3ccccc3Nc3ccc(Cl)cc32)CC1`, the activity change, negative = inhibition in assay [1] was -1.36%; in assay [2] it was -9.99%; in assay [3], -6.86%; in assay [4], -26.1%; in assay [5], -9.79%.

`CCCN(CCC)CCN1C(=O)c2cc3sc(CC)cc3n2CC1(C)C(=O)NC1CCCCC1` (stereo not given): the activity change, negative = inhibition in assay [1] is 4.26%; in assay [2] it was 2.03%; in assay [3] it was -12.5%; in assay [4] it was 2%; in assay [5], 3.96%.

Turning to `CCOC(=O)c1cc2n(n1)CC(C)(C(=O)NC1CCCCCC1)N(c1cc(Cl)ccc1C)C2=O` (stereo not given), the activity change, negative = inhibition in assay [1] was -1.11%; in assay [2], 3.74%; in assay [3] it was -23%; in assay [4], -2.29%; in assay [5] it was 1.32%.

`COc1ccc(CNC(=O)c2ccc3c(=O)nc4c(-c5ccccc5)n[nH]n4c3c2)cc1`: the activity change, negative = inhibition in assay [1] was -12.1%; in assay [2], 0.817%; in assay [3], 3.05%; in assay [4], -13.4%; in assay [5], -3.98%.

On to `CCc1ccc(NC(=O)CSc2nnc3n(Cc4ccccc4)c(=O)c4ccccc4n23)cc1`, for which the activity change, negative = inhibition in assay [1] is -3.16%; in assay [2], 3.92%; in assay [3] it was -4.54%; in assay [4], -2.34%; in assay [5] it was -1.68%.

As for `NC[C@H]1CCC[C@@H](CNC(=O)[C@@H](Cc2c[nH]c3ccccc23)NC(=O)N2CCC3(C=Cc4ccccc43)CC2)C1`, the activity change, negative = inhibition in assay [1] was 1.84%; in assay [2], 4.8%; in assay [3], 2.88%; in assay [4], -17.8%; in assay [5] it was -2.83%.

`O=C(CSc1nc2ccccc2c(=O)n1-c1ccccc1)Nc1ccc2c(c1)CCC2`: the activity change, negative = inhibition is 2.06% in assay [1]; -9.61% in assay [2]; 10.8% in assay [3]; -24% in assay [4]; -4.96% in assay [5].

Take `COc1cc2c(Nc3ccc(Br)cc3F)ncnc2cc1OCC1CCN(C)CC1`: the activity change, negative = inhibition in assay [1] is -29.1%; in assay [2], -3.02%; in assay [3], -79%; in assay [4], -35%; in assay [5], -18.2%.

With `CCN(C(=O)c1cccc(F)c1F)[C@@H]1CCN(c2ncccc2C#N)C[C@H]1O`, the activity change, negative = inhibition in assay [1] was -1.91%; in assay [2] it was -5.17%; in assay [3], 0.757%; in assay [4] it was -8.77%; in assay [5], 10.3%.

As to `Cc1ccc(CNC(=O)CCc2nnc3n(Cc4ccc(F)cc4)c(=O)c4ccccc4n23)cc1`, the activity change, negative = inhibition was -5.86% in assay [1]; -1.71% in assay [2]; 2.25% in assay [3]; 2.49% in assay [4]; -9.68% in assay [5].

Turning to `Cc1ccc(CN2C(=O)c3cc4occc4n3CC2(C)C(=O)NC2CCCC(C)C2C)cc1` (stereo not given), the activity change, negative = inhibition in assay [1] was -3.18%; in assay [2] it was 2.33%; in assay [3] it was -6.41%; in assay [4], -9.9%; in assay [5], -8.41%.

For `C/C=C(\C)C(=O)OC1C(C)C2(O)C(C=C(CO)CC3(O)C(=O)C(C)=CC32)C2C(C)(C)C12OC(C)=O` (stereo not given), the activity change, negative = inhibition in assay [1] was -7.59%; in assay [2], -5.05%; in assay [3], -1.93%; in assay [4], -18.2%; in assay [5], -15.9%.

For the compound `O=C(CCn1ccc2cc(S(=O)(=O)N3CCCC3)ccc21)NCc1ccc2c(c1)OCO2`, the activity change, negative = inhibition in assay [1] was -11.8%; in assay [2], 0.388%; in assay [3], -2.93%; in assay [4], -22.1%; in assay [5], -4.42%.

`CC(NS(=O)(=O)c1ccc2[nH]c(=O)[nH]c2c1)c1ccccc1` (stereo not given): the activity change, negative = inhibition in assay [1] is 14.8%; in assay [2] it was 0.992%; in assay [3], 2.6%; in assay [4] it was 1.47%; in assay [5], 4.35%.

Turning to `CC(C)=CCCC1(C)Oc2cc3c(c4c2C2C(O4)C(C)(O)CCC21)CN(C(CCC(=O)O)C(=O)O)C3=O` (stereo not given), the activity change, negative = inhibition was 2.56% in assay [1]; 0.095% in assay [2]; 3.42% in assay [3]; -14.7% in assay [4]; 4.28% in assay [5].

Consider `CCOc1ccccc1CN1C(=O)c2nc3ccccc3n2CC1(C)C(=O)NC1CCCC(C)C1C` (stereo not given), for which the activity change, negative = inhibition in assay [1] was 1.98%; in assay [2], 0.351%; in assay [3], 0.674%; in assay [4], -3.65%; in assay [5] it was -3.72%.

Take `O=C(CCc1nnc2n(Cc3ccc(F)cc3)c(=O)c3ccccc3n12)N1CCN(C2CCCCC2)CC1`: the activity change, negative = inhibition in assay [1] was -4.73%; in assay [2], -0.109%; in assay [3] it was -6.45%; in assay [4] it was 1.05%; in assay [5], -2.36%.

On to `CSc1ccc(-c2nc(CN(C)Cc3cc(C)no3)c(C)o2)cc1`, for which the activity change, negative = inhibition is -3.47% in assay [1]; 0.093% in assay [2]; 0.749% in assay [3]; -3.67% in assay [4]; -10.2% in assay [5].

For `Cn1nc2n(c1=O)CCN(Cc1ccc(Br)s1)CC2`, the activity change, negative = inhibition in assay [1] was -2.83%; in assay [2], -1.54%; in assay [3], 1.01%; in assay [4] it was -4.92%; in assay [5], -0.926%.

Consider `CCCn1c(=O)c2ccc(C(=O)NC(C)CC)cc2n2c(SCC(=O)c3ccc(C)cc3)nnc12` (stereo not given), for which the activity change, negative = inhibition in assay [1] came to 8.91%; in assay [2], 0%; in assay [3], 12.2%; in assay [4], 10.1%; in assay [5], 8.63%.

For `COc1ccc(NC(=O)Cn2c(=O)c3cc(Cl)ccc3n3nncc23)cc1`, the activity change, negative = inhibition in assay [1] was -3.86%; in assay [2], 3.7%; in assay [3], 5.5%; in assay [4], 3.72%; in assay [5], -2.87%.

For `COc1ccc(-c2nnc3n(CCc4ccccc4)c(=O)c4ccccc4n23)c(OC)c1`, the activity change, negative = inhibition in assay [1] was 0.404%; in assay [2], -40.4%; in assay [3], 4.91%; in assay [4] it was 0.659%; in assay [5], -1.74%.

As for `CS(=O)(=O)N(C1CC1)C1CCOC2(CCN(C(=O)CCC3CCCC3)CC2)C1` (stereo not given), the activity change, negative = inhibition in assay [1] was -0.179%; in assay [2], -0.985%; in assay [3], -0.062%; in assay [4] it was -1.12%; in assay [5], 0.509%.

`Cc1ccc(CNC(=O)C2(C)Cn3nc(C(=O)NCc4ccccc4C)cc3C(=O)N2C)cc1` (stereo not given): the activity change, negative = inhibition in assay [1] came to 4.05%; in assay [2] it was 0.99%; in assay [3] it was 5.41%; in assay [4], 5.59%; in assay [5], 3%.

For `COc1ccc(OC)c(CCN2C(=O)c3cc4ccccc4n3CC2(C)C(=O)NCCC(C)C)c1` (stereo not given), the activity change, negative = inhibition in assay [1] is 0.341%; in assay [2] it was 4.93%; in assay [3], 0.24%; in assay [4], -3.3%; in assay [5], -4.03%.

Take `Cc1noc(C)c1S(=O)(=O)N1CCC(Cc2nc(-c3cccnc3)n[nH]2)C1` (stereo not given): the activity change, negative = inhibition in assay [1] was -7.46%; in assay [2], -6.27%; in assay [3], -15.6%; in assay [4], -17.6%; in assay [5], -7.62%.

For the origin of these results see PubChem BioAssay AID1745853 (National Center for Advancing Translational Sciences (NCATS), 2022).
